Measured values reported in PubChem BioAssay AID1030 (National Center for Advancing Translational Sciences (NCATS), 2008).
Where “and” joins values, the source holds several entries; their conditions need not be identical. Identical values can stand only once. Among all 220,000 compounds or so, about 16,000 (7.3%) were called active. This list was built around the results that the source calls inconclusive (neither active nor inactive); the mix of calls is not that of the screen. The call rests on the fitted dose curve; in most records, active means well fitted inhibition curve with a large enough effect (not every such curve was filed as active); inconclusive means small, poorly fitted or top-dose-only effect, or another doubt; inactive means no such curve, though single readings can be large or run the other way. Potencies of inconclusive entries are doubtful fits and often do not repeat.

molecular target: Aldehyde dehydrogenase 1A1 (Homo sapiens) (UniProt P00352); test: qHTS Assay for Inhibitors of Aldehyde Dehydrogenase 1 (ALDH1A1); details: Purified ALDH1A1, NADH fluorescence, propionaldehyde substrate; series mostly up to 75.3 µM;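 on activity, negative = inhibition: plate controls were no enzyme wells and a reference inhibitor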
Chain of UniProt P00352 (P00352 whole entry, looked up): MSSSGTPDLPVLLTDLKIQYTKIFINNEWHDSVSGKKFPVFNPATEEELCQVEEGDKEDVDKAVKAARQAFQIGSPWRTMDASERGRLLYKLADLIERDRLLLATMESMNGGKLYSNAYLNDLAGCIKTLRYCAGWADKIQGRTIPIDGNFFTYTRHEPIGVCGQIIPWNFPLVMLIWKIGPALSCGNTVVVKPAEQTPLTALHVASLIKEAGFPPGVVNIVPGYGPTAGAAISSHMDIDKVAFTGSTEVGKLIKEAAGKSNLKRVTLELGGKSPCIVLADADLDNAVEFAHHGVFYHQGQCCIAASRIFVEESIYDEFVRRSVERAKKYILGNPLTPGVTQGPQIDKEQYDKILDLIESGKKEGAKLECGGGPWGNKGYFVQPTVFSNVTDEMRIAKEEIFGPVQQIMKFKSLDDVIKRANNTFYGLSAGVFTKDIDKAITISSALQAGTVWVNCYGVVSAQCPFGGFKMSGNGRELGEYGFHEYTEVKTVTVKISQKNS
Potency means the concentration at half of the fitted maximal effect; tags describe the fitted curve by direction and shape.

| Structure (SMILES) | Potency | activity, negative = inhibition |
| --- | --- | --- |
| COc1ccc(-c2nc3c(c4c2C[C@H](c2ccccc2)OC4)CN(S(=O)(=O)c2ccc(Cl)c4nonc24)CC3)c(C)c1 | inconclusive: 2.51 µM [inhibitor, partial curve] |  |
| CCOc1ccccc1N(C(=O)c1snc(C(N)=O)c1N)C(C(=O)NCCC(C)C)c1ccco1 (centres undefined) | inconclusive: 39.8 µM [inhibitor, single point] |  |
| Cc1csc(NC(=O)c2ccc(N3CCCC3=O)cc2)n1 | inconclusive: 35.5 µM [inhibitor, single point] |  |
| CC1CN(c2oc(-c3ccco3)nc2C#N)CC(C)O1 (centres undefined) | inconclusive: 28.2 µM [inhibitor, partial curve] |  |
| CCOc1ccc(-c2nnc(-c3ccncc3)o2)cc1 | inconclusive: 25.1 µM [inhibitor, partial curve] |  |
| O=C(c1cc(-c2ccc(F)cc2)on1)N1CCCC1 | inactive |  |
| Cn1nc(C(C)(C)C)cc1C(=O)Nc1nc2c(s1)C(=O)CC(C)(C)C2 | active: 14.1 µM |  |
| Cc1ccc(-c2nnn(CC(=O)N(Cc3cccs3)C(C(=O)NC3CCCC3)c3ccncc3)n2)cc1 (centres undefined) | inconclusive: 25.1 µM [inhibitor, single point] |  |
| O=C(O/N=C\c1ccc(N2CCCCC2)c([N+](=O)[O-])c1)c1cccc(Cl)c1 | inconclusive: 2.82 µM [inhibitor, full curve] |  |
| N=c1n(CCN2CCOCC2)c2ccccc2n1CC(=O)c1ccc(Cl)c(Cl)c1 | inconclusive: 23.8 µM [inhibitor, partial curve] |  |
| N=C1/C(=C\c2ccc(SCc3ccco3)o2)C(=O)N=C2SC=NN12 | active: 7.94 µM |  |
| CCC(=O)NCCc1cc2cc(C)c(C)cc2[nH]c1=O | inconclusive: 39.8 µM [inhibitor, single point] |  |
| O=C(COC(=O)C1(c2ccccc2)CC1)N1CCN(c2ccc(F)cc2)CC1 | inactive |  |
| Cc1ccc(/C=c2\sc3nc(-c4ccccc4Br)nn3c2=O)o1 | active: 12.6 µM |  |
| O=C(Nc1ccc(F)cc1)C(c1ccccc1)N1CCN(S(=O)(=O)c2c(F)cccc2F)CC1 (centres undefined) | active: 7.94 µM |  |
| O=C(Oc1ccccc1)N1CCC[C@@]2(CCN(c3ccccn3)C2)C1 | inconclusive: 39.8 µM [inhibitor, single point] |  |
| COc1ccccc1NC(=O)N1CCc2[nH]c3ccc(F)cc3c2C1 | inconclusive: 25.1 µM [inhibitor, single point] |  |
| Clc1ccc(Cl)c(SCCCN2CCNCC2)c1 |  | inactive: 7% [at 13.5 µM] |
| Nc1ccc2c(c1)N=[N+]([O-])c1cc(N)ccc1C2 | inactive |  |
| Cn1c(SCC(=O)c2cc(Cl)c(Cl)s2)nnc1-c1ccco1 | active: 28.2 µM |  |
| COC(=O)c1ccc(OCC2c3cc(OC)c(OC)cc3CCN2C(C)=O)cc1 (centres undefined) | inactive |  |
| CC1Cc2ccccc2N1C(=O)CSc1nnnn1C(C)C (centres undefined) | active: 28.2 µM |  |
| Cc1ccc(C2CN=NC23CCc2ccccc2C3=O)cc1 (centres undefined) | inconclusive: 44.7 µM [inhibitor, single point] |  |
| CC1=CC2C(C(C)C)CCC(C)(O)C2CC1 (centres undefined) | inactive |  |
| O=C(COc1ncnc2ccccc12)NCc1ccco1 | inactive |  |

| Structure (SMILES) | Potency | activity, negative = inhibition |
| --- | --- | --- |
| Cc1ccc(S(=O)(=O)NCC(c2cccnc2)N2CCOCC2)cc1 (centres undefined) | inconclusive: 39.8 µM [inhibitor, single point] |  |
| Cc1ccccc1N=Cc1cc2c(cc1[N+](=O)[O-])OCO2 | inconclusive: 10 µM [inhibitor, partial curve] |  |
| C/C(=N\OC(=O)c1c(-c2c(F)cccc2Cl)noc1C)c1nccs1 | inconclusive: 1.78 µM [inhibitor, full curve, poor fit] |  |
| CS(=O)(=O)N1CCN(c2ccccc2NC(=O)Cc2ccc(Cl)cc2)CC1 | inconclusive: 39.8 µM [inhibitor, single point] |  |
| O=C1/C(=C/c2cccnc2)SC(=S)N1Cc1ccco1 | active: 2.24 µM |  |
| COc1ccccc1NC1=C(N2CCCCC2)C(=O)c2ccccc2C1=O | active: 10 µM |  |
| Cc1ccc2nc(NNC(=O)c3ccc(S(=O)(=O)N4CCc5ccccc5C4)cc3)sc2c1 | inactive |  |
| CCOC(=O)C1CCCN(c2c(N3CCc4ccccc4C3)c(=O)c2=O)C1 (centres undefined) | inconclusive: 44.7 µM [inhibitor, single point] |  |
| CCN(CC)C(=O)c1sc(NC(=O)c2ccc3c(c2)OCO3)c(C#N)c1C | inconclusive: 39.8 µM [inhibitor, single point] |  |
| CCNC(=S)N1CCN(C(=O)C(Cc2ccccc2)NC(C)=O)CC1 (centres undefined) | inconclusive: 14.1 µM [inhibitor, partial curve] |  |
| O=C(Nc1ccccc1)C1=C[C@H](c2ccc3c(c2)OCO3)C[C@H](OCCCCO)O1 | inactive |  |
| CN(C)C=NC(=O)/C(C#N)=C/c1ccccc1 | inactive |  |
| O=S(=O)(Nc1nc2ccccc2nc1N1CCc2ccccc2C1)c1ccc(Cl)cc1 | inconclusive: 25.1 µM [inhibitor, partial curve] |  |
| c1ccc(-n2nnnc2SCc2cn3ccccc3n2)cc1 | active: 3.98 µM |  |
| COc1cccc(Oc2cncnc2-c2ccc(OC)cc2O)c1 | inactive |  |
| COc1cc(/C=C/C(=O)OCC(=O)Nc2sc3c(c2C#N)CCC(C)C3)ccc1OCC#N (centres undefined) | inconclusive: 39.8 µM [inhibitor, single point] |  |
| COc1ccccc1-c1c(C)c(C)nc(N)c1C#N | inconclusive: 3.55 µM [inhibitor, partial curve] |  |
| CC(=O)c1ccc(NC(=O)c2noc3c2CCC3)cc1 | inconclusive: 12.6 µM [inhibitor, partial curve] |  |
| COC(=O)c1ccccc1NC(=O)CSc1nnc(Cc2ccc(Cl)cc2)o1 | active: 20 µM |  |
| C/C(=N\NC(=O)COc1ccccc1-c1ccccc1)c1cccnc1 | active: 14.1 µM |  |
| CCCn1c(=O)c(C(=O)c2ccccc2)nc2ccccc21 | inactive |  |
| COc1ccccc1-n1c(N)c(C(=O)NCC2CCCO2)c2nc3ccccc3nc21 (centres undefined) | inconclusive: 25.1 µM [inhibitor, partial curve] |  |
| Cc1cc(Cl)ccc1OC(C)C(=O)Nc1ccc(S(=O)(=O)Nc2cnc3ccccc3n2)cc1 (centres undefined) | inactive |  |
| COC(=O)C1CSC(C(=O)OC)N1C(=O)Nc1ccccc1 (centres undefined) | inactive |  |
| CCSc1ccccc1C(=O)Nc1cccc(OC)c1 | inactive |  |

| Structure (SMILES) | Potency | activity, negative = inhibition |
| --- | --- | --- |
| COC(=O)C(C)Oc1cc(OC(C)C(=O)OC)c2c(C)c(Cl)c(=O)oc2c1 (centres undefined) | inconclusive: 31.6 µM [inhibitor, partial curve] |  |
| CCSc1ccccc1C(=O)N1CCN(Cc2ccc3c(c2)OCO3)CC1 | inactive |  |
| C#CCN1C(=O)S/C(=C/C=C/c2ccc(N(C)C)cc2)C1=O | inconclusive: 22.4 µM [inhibitor, partial curve] |  |
| Cc1noc(C)c1COC(=O)c1ccc(S(=O)(=O)NCc2ccco2)cc1 | inconclusive: 31.6 µM [inhibitor, single point] |  |
| N#C/C(=C(/O)c1ccc([N+](=O)[O-])cc1)c1nnc2n1CCCCC2 | inconclusive: 39.8 µM [inhibitor, single point] |  |
| CC[C@@H]1C(c2cccc(C)c2)=NN(c2ccc(Br)cc2)[C@H]1C(=O)N1CCOC1=O | inconclusive: 31.6 µM [inhibitor, single point] |  |
| Cc1ccccc1NC(=S)NC(=O)c1cncc(Br)c1 | inconclusive: 28.2 µM [inhibitor, single point] |  |
| Cn1cccc1Cc1nnc(SCC(=O)Nc2ccccc2F)n1CCc1ccccc1 | active: 25.1 µM |  |
| O=C(/C=C/Sc1ccccc1)c1ccc(Cl)cc1 | inconclusive: 25.1 µM [inhibitor, partial curve] |  |
| O=[N+]([O-])c1ccccc1Nc1c2ccccc2nc2ccccc12 | inactive |  |
| O=C1CCN(C2CCN(Cc3nc(Cc4ccccc4F)no3)CC2)CCN1 | inactive |  |
| Cc1ccccc1S(=O)(=O)Nc1nc2ccccc2nc1Cl | inconclusive: 20 µM [inhibitor, partial curve] |  |
| NC(C(=O)O)c1ccc(P(=O)(O)O)cc1 (centres undefined) | inactive |  |
| O=C(CCS(=O)(=O)c1ccc(Br)cc1)N1CCN(Cc2ccccc2)CC1 | inconclusive: 39.8 µM [inhibitor, single point] |  |
| Cc1ccc(C)c(N2CCN(C(=O)C3CCN(c4nc(C)cc(C)n4)CC3)CC2)c1 | inconclusive: 35.5 µM [inhibitor, single point] |  |
| CCOc1cc(NC(=O)c2cccs2)c(OCC)cc1NC(=O)c1cccnc1 | inactive |  |
| CCN(CC(=O)Nc1sc2c(c1C#N)CCCC2)Cc1nc2ccccc2c(=O)[nH]1 | inconclusive: 35.5 µM [inhibitor, single point] |  |
| COc1ccc(C(=O)N2CCN(C3CCN(Cc4ccccc4)CC3)CC2)cc1OC | inconclusive: 44.7 µM [inhibitor, single point] |  |
| Cc1nn(C)cc1CN(C)C(=O)c1cc(-c2ccccc2)nc2ccc(Br)cc12 | inactive |  |
| CC(=O)N[C@@H]1CONC1=O |  | inactive: -0.962% [at 13.5 µM] |
| COc1ccccc1C(=O)N/N=C/c1cnc2ccccc2n1 | inactive |  |
| CN(C)CCCN1C(=O)c2oc3ccc(Cl)cc3c(=O)c2C1c1cccnc1 (centres undefined) | inconclusive: 20 µM [inhibitor, partial curve] |  |
| COc1ccccc1[C@@H]1C(c2cccc(Cl)c2)=NN(c2ccc(Br)cc2)[C@H]1C(=O)N1CCOC1=O | inconclusive: 35.5 µM [inhibitor, partial curve] and inconclusive: 22.4 µM [inhibitor, partial curve] |  |
| NC(=O)NCCS[C@H]1CCCC[C@@H]1O |  | inactive: 6.35% [at 13.5 µM] |
